SMILES strings stand for the structures. This is one part of the list. Most values come without repeats; read them as rough.

The results in this text go back to the supplement of paper PMC4604168 (melanoma cell lines).
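Note: cells treated in 1,536-well plates, then fixed and DAPI-stained, with nuclei counted from automated high-throughput microscope images.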

The assay concerns UACC62. Briefly: cell count relative to DMSO control; melanoma cells; higher = more viable cells. To be noted: library dose: standard library concentration; 72 h.
In the case of `COc1cc([C@@H]2c3cc4c(cc3[C@@H](O[C@@H]3O[C@@H]5CO[C@@H](C)O[C@H]5[C@H](O)[C@H]3O)[C@H]3COC(=O)[C@H]23)OCO4)cc(OC)c1O` [etoposide] + O=C(O)c1ccc(-c2c[nH]c3ncc(-c4ccccc4)cc23)cc1C1CCCC1 [GSK650394] (first compound 0.1 µM, partner dose 0.8 µM), the cell count was found to be 84.7%. In the case of `Cn1cnc2c(F)c(Nc3ccc(Br)cc3Cl)c(C(=O)NOCCO)cc21` [selumetinib] + Cc1ccc(NC(=O)c2cccc(N(C)C)c2)cc1NC(=O)c1ccc(O)cc1 [ZM336372] (first compound 0.075 µM, partner dose 10 µM), the cell count was found to be 70.5%. Take `C[C@]1(O)C[C@@H](c2nc(-c3ccc4ccc(-c5ccccc5)nc4c3)c3c(N)nccn32)C1` + OCCn1cc(-c2cnc3nnn(Cc4ccc5ncccc5c4)c3n2)cn1 [PF04217903] (first compound 2 µM, partner dose 5 µM): the cell count stood at 108%. `CCN(CC)CCNC(=O)c1c(C)[nH]c(/C=C2\C(=O)Nc3ccc(F)cc32)c1C` [sunitinib] + CN(C)S(=O)(=O)c1ccc2c(c1)/C(=C/c1cc3c([nH]1)CCCC3)C(=O)N2 [SU6656] (first compound 2 µM, partner dose 2 µM) came in with a cell count of 57.7%. For `CCN(CC)CCNC(=O)c1c(C)[nH]c(/C=C2\C(=O)Nc3ccc(F)cc32)c1C` [sunitinib] + CC(C)(C)c1cnc(CSc2cnc(NC(=O)C3CCNCC3)s2)o1 [SNS-032] (first compound 2 µM, partner dose 0.05 µM), the cell count was 50.3%. For `Cn1cnc2c(F)c(Nc3ccc(Br)cc3Cl)c(C(=O)NOCCO)cc21` [selumetinib] + O=C(Nc1cccc(Cl)c1)Nc1ncc(CCNc2ncnc3ccsc23)s1 [SNS314] (first compound 0.075 µM, partner dose 0.004 µM) the value was 68.2%; for `COc1cc([C@@H]2c3cc4c(cc3[C@@H](O[C@@H]3O[C@@H]5CO[C@@H](C)O[C@H]5[C@H](O)[C@H]3O)[C@H]3COC(=O)[C@H]23)OCO4)cc(OC)c1O` [etoposide] + CC1(C)NC(=O)N(c2ccc([N+](=O)[O-])c(C(F)(F)F)c2)C1=O [nilutamide] (first compound 0.1 µM, partner dose 5 µM), 65.5%.
